According to the RNAGym collection of RNA variant scans (doi:10.1073/pnas.2313332121):
This sample is rich in variants without activity.

B1: TPR 5TU (parent)
chain: GGAUCUUCUCGAUCUAACAAAAAAGACAAAUCUGCCACAAAGCUUGAGAGCAUCUUCGGAUGCAGAGGCGGCAGCCUUCGGUGGCGCGAUAGCGCCAACGUUCUCAACUAUGACACGCAAAACGCGUGCUCCGUUGAAUGGAGUUUAUCAUG

Variants of: B1
Assay: polymerase ribozyme fitness, log enrichment relative to wild type (log ratio); higher = more active; in vitro selection for triplet polymerase activity
Method in brief: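 Fitness is a logarithmic measure of how a genotype enriched relative to the wild type, with replicate averages weighted by inverse variance. The logarithm uses base 2, and enrichment came from Illumina sequencing of input and output libraries. Those libraries were PCR-built, transcribed mutants of each subunit of a heterodimeric triplet polymerase ribozyme, passed through one triplicate in vitro selection round that included frozen incubation at −7 °C, gel excision of extended constructs and streptavidin-bead capture. Genotypes were kept only if they had ≥10 input reads and ≥1 read per output.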

Variant | polymerase ribozyme fitness (log ratio)
G59A G100C | ≤ -4.2
G59A G65C A91C G117A G140C | ≤ -4.2
G58A G68U C75A C87G U104A G143A | ≤ -4.2
C57G C79A | ≤ -4.2
G58U A89U C99A C105G G141C | ≤ -4.2
G58C A91U A97U | ≤ -4.2
C57U C95G A120G G143A | -2.18
G58C C79U U134G | ≤ -4.2
G58C G83A C93U | -2.03
G58A C85A C108A | ≤ -4.2
G59A G88U A89G G94U A113G | ≤ -4.2
C57A G141A G152U | -3.49
G59U A66G A91G G100U U134A G143A A147G A150C | ≤ -4.2
G59U A60U U82G A91G G94A | ≤ -4.2
C57U G67A C79G C85U A110C A150G | ≤ -4.2
G59C U127A | -3.77
C57U A64C U78G A121G | ≤ -4.2
C57U U78A G92U | ≤ -4.2
G59U C75G G83C C103A A150G | ≤ -4.2
G58U G86U G140A | ≤ -4.2
G58A A64C C85G C93G C96U U104G | ≤ -4.2
G58U C125U A142C A150C | ≤ -4.2
C57G C75A C93A A113G A115U U145A | ≤ -4.2
G59C G65C C76G U145G C149A | ≤ -4.2

Variant | polymerase ribozyme fitness (log ratio)
C57U C85A C108U | ≤ -4.2
G59C A73G C85A | -2.84
C57U G71C G92A A150C | ≤ -4.2
C57G C75G U78A | ≤ -4.2
C57A G83C C87U U134G U139A U144G | ≤ -4.2
G59U A66C G71A G80U G94U A122G G143C | ≤ -4.2
G59C C96U A106G C132U U145C | -0.905
C57U G83A C99A | -2.32
G58A G86U A98G U102C G143A U144G | ≤ -4.2
G59C C87U U102G C132U U145G | ≤ -4.2
G58A A91G G136U | ≤ -4.2
G59A A64U C85A G92A U144C | ≤ -4.2
G58A G67C G141A | ≤ -4.2
C57U G83U U139C G143A A147G | ≤ -4.2
G59A G84A | -2.24
C57A U102G C108A C132U | ≤ -4.2
G58A G83A U139A A142U | ≤ -4.2
C57G C79U U139A | ≤ -4.2
G59C G68A C93U G126U A147G | ≤ -4.2
G58A C105G G124U U135G | ≤ -4.2
C57U G92A U104G C116U | ≤ -4.2
G58C A64U G133A | ≤ -4.2
C57A U61A C132G A137G | ≤ -4.2
G58U G67U G68U C96A A119G | ≤ -4.2

Variant | polymerase ribozyme fitness (log ratio)
C57U G81C C129U G141A | ≤ -4.2
G58A C69G C96G A110G A113C G140A A150C | ≤ -4.2
C57A G59C G83C A107U | ≤ -4.2
G59A U90G C103A C118A | ≤ -4.2
G58A C76A C87U A115U G141C | ≤ -4.2
G58U G59U C87A G141A | ≤ -4.2
G59A G62A G86U A107C | ≤ -4.2
G58C A66C G67A A89C U111C C116A C129G U148A | ≤ -4.2
G59A G94A | -0.522
C57A G71A C93A C118U G140U C149U | ≤ -4.2
G59U G71A U77G G94C C95U A122C U139G | ≤ -4.2
G58U G86A | -1.55
G58A G70C C85A U102G C108A | ≤ -4.2
G58C A60G G92A A121U | -2.24
G58A C87G U101C A113U C131G | ≤ -4.2
C57U G81C A106U | -1.74
C57U G88C G140U | ≤ -4.2
G58C C76G U77G | ≤ -4.2
G59C C93U C103A A150G | ≤ -4.2
G59C U90C U101A G152U | ≤ -4.2
G58A C95U G143C | -1.9
C57U G100U C149A | ≤ -4.2
G59A G92C G94U U148G G152A | ≤ -4.2
C57A G68U A138C A150U | ≤ -4.2

Variant | polymerase ribozyme fitness (log ratio)
C57U A66G G92U A150U | ≤ -4.2
G58U G83C | -0.165
G58A C63A C72G G84C G88U G126C G133A | ≤ -4.2
G58C C85G U90A U139A G140U | ≤ -4.2
C57G A60U U61A C69U G70A C79U A142C C149U | ≤ -4.2
G58U C132U G141C | ≤ -4.2
C57U C95G U151C | ≤ -4.2
C57A G81U A91U C95G C105A A107U | ≤ -4.2
C57U C79A C132A A150C | ≤ -4.2
G58A C87A | ≤ -4.2
G59C G67A U78G C79A C87A G143A | ≤ -4.2
G58A G84A U104A C108G G112A | ≤ -4.2
G59A C75G A122U C129A G143U | -3.5
G58A G59A C108A C132U | ≤ -4.2
G59U C132G U146G | ≤ -4.2
C57U C85U C96U U127G A150U | ≤ -4.2
G59C U77C C87U C99A A138U C149U | ≤ -4.2
G58U C76A | 0.0806
G59C G68C C118G | -4.15
C57G C79U G84A A137U G143A | ≤ -4.2
G58A C95U | -0.535
G58U G92A | -2.51
G58U A60G | 0.208
C57U A73C C87A C105G A147G | ≤ -4.2

Variant | polymerase ribozyme fitness (log ratio)
G58A U77A | ≤ -4.2
C57U C118U U139C | ≤ -4.2
G58A C87A A91C C99U | ≤ -4.2
G59C U61G G88C C103G G117U U135G | ≤ -4.2
G58A U61G | -1.49
G58A C72U A89C C95U G126U G141C U145A C149A | ≤ -4.2
C57U G86A A120G G141C | -2.82
C57G G94C C114G C118A | ≤ -4.2
G59C G68C G92A | ≤ -4.2
G59C C85A C99U G141U U146G | ≤ -4.2
C57U G100A C118A | ≤ -4.2
C57U C76G A115C A150G | ≤ -4.2
G58A C87G C116A A147C U151A | ≤ -4.2
G58U G94C G117U G143C | ≤ -4.2
C57U C79A A110C | ≤ -4.2
G58C C95U | -0.651
G58A C87G A142C | ≤ -4.2
C57U C76U A98G | -0.421
C57U G67C G71A U82G C87G U104A U139G A142G | ≤ -4.2
G58C G88A C96A G143U | ≤ -4.2
G58C C87A U104G A115G | ≤ -4.2
G59A C75U U101G C116A A122U G136C | ≤ -4.2
G58C C76A G83U | -2.66
G58U U127G G141C G143U | ≤ -4.2

Variant | polymerase ribozyme fitness (log ratio)
G59A C85U G88C A120U C123G U151C | ≤ -4.2
C57G G59A G80U G92U C99A C131U U135A | -3.22
C57U G83C U101G A106C G128U | ≤ -4.2
G59U A60G C93U | -3.87
C57G C85G C99G A115G | ≤ -4.2
C57A G86C G88U G117C G133U G141C | ≤ -4.2
G59U A60C G83A C116U C118G | -2.5
C57A G88U G92A G100A A106U C125U | ≤ -4.2
C57U C85U C87U U144G | -0.0249
C57U G62A G92A A115C G133A G141C | ≤ -4.2
G58A C85A C125U G143C | ≤ -4.2
G59A U77A C87G G92C A107G | ≤ -4.2
G59C A60U | 0.153
C57G C85U U104A U134C U151C | ≤ -4.2
G58A G86A | -1.63
C57G U101A | 0.403
C57U G117C A122G | 0.204
G58C G59C G68A U77C C87A G143C | ≤ -4.2
G59U C69U C87G A107U G117U | ≤ -4.2
C57G G67A G84U C85A G92U G141A | ≤ -4.2
G58A A73U C96U | -0.178
G58U C105U A106G C149U | 0.147
C57G C93A A113G A120C | -4.13
G59U C96U A121C G126A U146G | -2.76

Variant | polymerase ribozyme fitness (log ratio)
C57G U77A C87U A110C | ≤ -4.2
G58A A73G G88C A150U | ≤ -4.2
G58A G68U C87G A142C | ≤ -4.2
G58A U82C G83U C96G C105G | ≤ -4.2
C57A G83C G94C A97U C131G | ≤ -4.2
G58C A106C | 0.355
G59C C87A A122C C149G | ≤ -4.2
G59A G92A C96A C105G C118G A121C U134G A142U U146C | ≤ -4.2
G58U C75G C87U C93U | ≤ -4.2
G58A C79A C87A A89U | ≤ -4.2
G59A A138C | ≤ -4.2
G59U C95G A113G G136C | ≤ -4.2
G59A A106G U134A | -2.03
G59A A122U | 0.148
C57U A60U G68U C76U C93G C105U A110U U130C A137G | ≤ -4.2
G59C G80C C125A A147U | ≤ -4.2
G58C A73U G92A A97U C116A A150G | ≤ -4.2
G59A A60G G62A C69A G74C C96A A137U | ≤ -4.2
G59C G83U C108G A113C U146A A150G | ≤ -4.2
C57A U61A C87A C103G A115C G141C C149G | ≤ -4.2
G59C G62A C93A U148A | ≤ -4.2
G58C A60C G94A G100C C103A | ≤ -4.2
C57U A66G G88C A91U G126A | ≤ -4.2
